The list shows a part of the results.
Columns and labels:
Assay in all cases: glycan array binding signal (z-score within array); higher = stronger binding
Details in all cases: glycan notation: IUPAC condensed, linker removed
[1] = molecular target: Neu5Ac(a2-3)Gal(b1-4)GlcNAc
Summary of the method: (§1)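 The binding signal is a Z-score computed within each array and averaged over linkers. Arrays of the same protein sequence at different concentrations or buffers were also averaged together. Data originate from 3228 arrays in the Consortium for Functional Glycomics database, kept only where the protein sequence was available.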

[2] = molecular target: Neu5Ac(a2-3)Gal(b1-4)GlcNAc(b1-2)Man(a1-3)[GlcNAc(b1-2)Man(b1-4)GlcNAc(b1-2)Man(a1-6)]Man(b1-4)GlcNAc(b1-4)GlcNAc
Summary of the method: as §1

[3] = molecular target: Neu5Ac(a2-3)Gal(b1-4)GlcNAc(b1-2)Man(a1-3)[Neu5Ac(a2-6)Gal(b1-4)GlcNAc(b1-2)Man(a1-6)]Man(b1-4)GlcNAc(b1-4)GlcNAc
Summary of the method: as §1

[4] = molecular target: Neu5Ac(a2-3)Gal(b1-4)GlcNAc(b1-3)Gal(b1-3)GlcNAc
Summary of the method: as §1

[5] = molecular target: Neu5Ac(a2-3)Gal(b1-4)GlcNAc(b1-3)Gal(b1-4)GlcNAc
Summary of the method: as §1

[6] = molecular target: Neu5Ac(a2-3)Gal(b1-4)GlcNAc(b1-3)Gal(b1-4)GlcNAc(b1-3)Gal(b1-4)GlcNAc
Summary of the method: as §1

[7] = molecular target: Neu5Ac(a2-3)Gal(b1-4)GlcNAc(b1-3)Gal(b1-4)[Fuc(a1-3)]GlcNAc
Summary of the method: as §1

[8] = molecular target: Neu5Ac(a2-3)Gal(b1-4)GlcNAc(b1-3)GalNAc
Summary of the method: as §1

[9] = molecular target: Neu5Ac(a2-3)Gal(b1-4)GlcNAc(b1-6)[Gal(b1-3)]GalNAc
Summary of the method: as §1

[10] = molecular target: Neu5Ac(a2-3)Gal(b1-4)GlcNAc(b1-6)[Neu5Ac(a2-3)Gal(b1-3)]GalNAc
Summary of the method: as §1

[11] = molecular target: Neu5Ac(a2-3)Gal(b1-4)GlcNAc6S
Summary of the method: as §1

[12] = molecular target: Neu5Ac(a2-3)Gal(b1-4)[Fuc(a1-3)]GlcNAc
Summary of the method: as §1

[13] = molecular target: Neu5Ac(a2-3)Gal(b1-4)[Fuc(a1-3)]GlcNAc(b1-3)Gal
Summary of the method: as §1

[14] = molecular target: Neu5Ac(a2-3)Gal(b1-4)[Fuc(a1-3)]GlcNAc(b1-3)Gal(b1-4)GlcNAc
Summary of the method: as §1

[15] = molecular target: Neu5Ac(a2-3)Gal(b1-4)[Fuc(a1-3)]GlcNAc(b1-3)Gal(b1-4)[Fuc(a1-3)]GlcNAc(b1-3)Gal(b1-4)[Fuc(a1-3)]GlcNAc
Summary of the method: as §1

[16] = molecular target: Neu5Ac(a2-3)Gal(b1-4)[Fuc(a1-3)]GlcNAc(b1-3)GalNAc
Summary of the method: as §1

[17] = molecular target: Neu5Ac(a2-3)Gal(b1-4)[Fuc(a1-3)]GlcNAc(b1-6)[Gal(b1-3)]GalNAc
Summary of the method: as §1

[18] = molecular target: Neu5Ac(a2-3)Gal(b1-4)[Fuc(a1-3)]GlcNAc(b1-6)[Neu5Ac(a2-3)Gal(b1-3)]GalNAc
Summary of the method: as §1

[19] = molecular target: Neu5Ac(a2-3)Gal(b1-4)[Fuc(a1-3)]GlcNAc6S
Summary of the method: as §1

[20] = molecular target: Neu5Ac(a2-3)Gal6S(b1-4)GlcNAc
Summary of the method: as §1

[21] = molecular target: Neu5Ac(a2-3)Gal6S(b1-4)[Fuc(a1-3)]GlcNAc
Summary of the method: as §1

[22] = molecular target: Neu5Ac(a2-3)GalNAc
Summary of the method: as §1

[23] = molecular target: Neu5Ac(a2-3)GalNAc(b1-4)GlcNAc
Summary of the method: as §1

[24] = molecular target: Neu5Ac(a2-3)[GalNAc(b1-4)]Gal(b1-4)Glc
Summary of the method: as §1

[25] = molecular target: Neu5Ac(a2-3)[GalNAc(b1-4)]Gal(b1-4)GlcNAc
Summary of the method: as §1

[26] = molecular target: Neu5Ac(a2-3)[GalNAc(b1-4)]Gal(b1-4)GlcNAc(b1-3)GalNAc
Summary of the method: as §1

[27] = molecular target: Neu5Ac(a2-3)[Neu5Ac(a2-6)]GalNAc
Summary of the method: as §1

[28] = molecular target: Neu5Ac(a2-6)Gal
Summary of the method: as §1

[29] = molecular target: Neu5Ac(a2-6)Gal(b1-4)Glc
Summary of the method: as §1

[30] = molecular target: Neu5Ac(a2-6)Gal(b1-4)GlcNAc
Summary of the method: as §1

[31] = molecular target: Neu5Ac(a2-6)Gal(b1-4)GlcNAc(b1-2)Man(a1-3)Man(b1-4)GlcNAc(b1-4)GlcNAc
Summary of the method: as §1

[32] = molecular target: Neu5Ac(a2-6)Gal(b1-4)GlcNAc(b1-2)Man(a1-3)[Gal(b1-4)GlcNAc(b1-2)Man(a1-6)]Man(b1-4)GlcNAc(b1-4)GlcNAc
Summary of the method: as §1

[33] = molecular target: Neu5Ac(a2-6)Gal(b1-4)GlcNAc(b1-2)Man(a1-3)[GlcNAc(b1-2)Man(a1-6)]Man(b1-4)GlcNAc(b1-4)GlcNAc
Summary of the method: as §1

[34] = molecular target: Neu5Ac(a2-6)Gal(b1-4)GlcNAc(b1-2)Man(a1-3)[GlcNAc(b1-2)Man(b1-4)GlcNAc(b1-2)Man(a1-6)]Man(b1-4)GlcNAc(b1-4)GlcNAc
Summary of the method: as §1

[35] = molecular target: Neu5Ac(a2-6)Gal(b1-4)GlcNAc(b1-2)Man(a1-3)[Man(a1-6)]Man(b1-4)GlcNAc(b1-4)GlcNAc
Summary of the method: as §1

B1: SLP (Clostridium difficile), Q183M8 (protein)
chain: MATTGTQGYTVVKNDWKKAVKQLQDGLKDNSIGKITVSFNDGVVGEVAPKSANKKADRDAAAEKLYNLVNTQLDKLGDGDYVDFSVDYNLENKIITNQADAEAIVTKLNSLNEKTLIDIATKDTFGMVSKTQDSEGKNVAATKALKVKDVATFGLKSGGSEDTGYVVEMKAGAVEDKYGKVGDSTAGIAINLPSTGLEYAGKGTTIDFNKTLKVDVTGGSTPSAVAVSGFVTKDDTDLAKSGTINVRVINAKEESIDIDASSYTSAENLAKRYVFDPDEISEAYKAIVALQNDGIESNLVQLVNGKYQVIFYPEGKRLETKSLEHHHHHH
glycan array binding signal (z-score) [1]: -0.195
glycan array binding signal (z-score) [2]: -0.182
glycan array binding signal (z-score) [3]: -0.202
glycan array binding signal (z-score) [4]: -0.189
glycan array binding signal (z-score) [5]: -0.18
glycan array binding signal (z-score) [6]: -0.192
glycan array binding signal (z-score) [7]: -0.159
glycan array binding signal (z-score) [8]: -0.143
glycan array binding signal (z-score) [9]: -0.178
glycan array binding signal (z-score) [10]: -0.195
glycan array binding signal (z-score) [11]: -0.167
glycan array binding signal (z-score) [12]: -0.177
glycan array binding signal (z-score) [13]: -0.195
glycan array binding signal (z-score) [14]: -0.03
glycan array binding signal (z-score) [15]: -0.148
glycan array binding signal (z-score) [16]: 0.228
glycan array binding signal (z-score) [17]: -0.101
glycan array binding signal (z-score) [18]: -0.014
glycan array binding signal (z-score) [19]: -0.21
glycan array binding signal (z-score) [20]: -0.165
glycan array binding signal (z-score) [21]: -0.192
glycan array binding signal (z-score) [22]: -0.183
glycan array binding signal (z-score) [23]: -0.183
glycan array binding signal (z-score) [24]: -0.203
glycan array binding signal (z-score) [25]: -0.195
glycan array binding signal (z-score) [26]: -0.106
glycan array binding signal (z-score) [27]: -0.181
glycan array binding signal (z-score) [28]: -0.181
glycan array binding signal (z-score) [29]: -0.184
glycan array binding signal (z-score) [30]: -0.183
glycan array binding signal (z-score) [31]: -0.163
glycan array binding signal (z-score) [32]: -0.203
glycan array binding signal (z-score) [33]: 0.044
glycan array binding signal (z-score) [34]: -0.185
glycan array binding signal (z-score) [35]: -0.199

— the supplement of paper PMC8728848
